# Measured values reported in publication PMC4336329 (PLoS ONE, 2015).
# Out of some 310,000 compounds screened, about 14,000 (4.5%) showed an effect of 50% or more. Effects have a minus sign here. The list shows a part of the results.
# Target: human ether-à-go-go-related gene (hERG) potassium channel (human, UniProt Q12809)
# Assay: primary screen, population patch clamp on CHO cells stably expressing hERG
# 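Further: peak tail current of the secondary pulse compared with the same well before compound.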
# human ether-à-go-go-related gene (hERG) potassium channel, sequence (Q12809 whole entry, looked up): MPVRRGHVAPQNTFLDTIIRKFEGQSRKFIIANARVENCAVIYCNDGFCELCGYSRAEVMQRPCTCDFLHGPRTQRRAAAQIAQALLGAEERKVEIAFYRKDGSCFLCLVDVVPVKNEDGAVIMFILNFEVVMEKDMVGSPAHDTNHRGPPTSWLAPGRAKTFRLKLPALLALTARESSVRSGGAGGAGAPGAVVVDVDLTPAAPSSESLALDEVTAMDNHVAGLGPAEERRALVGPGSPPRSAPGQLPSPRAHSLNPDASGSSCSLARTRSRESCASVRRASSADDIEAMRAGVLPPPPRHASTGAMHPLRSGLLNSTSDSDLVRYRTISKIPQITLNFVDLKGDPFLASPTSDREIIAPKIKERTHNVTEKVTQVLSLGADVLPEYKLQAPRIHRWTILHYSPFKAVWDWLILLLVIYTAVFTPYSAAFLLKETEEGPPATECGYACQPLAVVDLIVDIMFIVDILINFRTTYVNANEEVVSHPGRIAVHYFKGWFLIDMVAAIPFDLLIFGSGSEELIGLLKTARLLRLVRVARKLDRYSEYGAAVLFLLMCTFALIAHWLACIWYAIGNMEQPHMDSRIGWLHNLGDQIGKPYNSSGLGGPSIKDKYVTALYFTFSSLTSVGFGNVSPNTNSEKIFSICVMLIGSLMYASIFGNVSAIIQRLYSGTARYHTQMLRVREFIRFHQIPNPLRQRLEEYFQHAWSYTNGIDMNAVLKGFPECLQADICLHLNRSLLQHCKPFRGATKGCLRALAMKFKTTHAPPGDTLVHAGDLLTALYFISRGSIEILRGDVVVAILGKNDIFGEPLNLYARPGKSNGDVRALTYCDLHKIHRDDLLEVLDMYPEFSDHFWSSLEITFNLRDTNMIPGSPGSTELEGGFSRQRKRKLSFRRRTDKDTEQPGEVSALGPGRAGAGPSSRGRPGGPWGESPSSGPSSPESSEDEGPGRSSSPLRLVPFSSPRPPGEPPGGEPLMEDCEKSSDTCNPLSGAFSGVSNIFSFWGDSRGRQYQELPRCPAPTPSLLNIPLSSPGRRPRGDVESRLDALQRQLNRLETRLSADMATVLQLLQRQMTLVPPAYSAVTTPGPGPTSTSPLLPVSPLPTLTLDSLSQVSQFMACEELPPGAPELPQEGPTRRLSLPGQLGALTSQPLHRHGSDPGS
row,Compound,"hERG current change (%, negative = inhibition) at 10uM [%]"
1,NC(=O)OCC(COC(N)=O)c1ccccc1.O,1.48
2,COc1ccc(OC)c(-c2nc(C)sc2CC(=O)O)c1,5.21
3,CSc1nsc(SCC(=O)N2CCCCC2)n1,4.18
4,CC(=O)Nc1ccc(NC(=O)c2ccc(-c3ccc([N+](=O)[O-])cc3)o2)cc1,-14.5
5,O=C(CN1C(=O)NC(Cc2ccccc2)(Cc2ccccc2)C1=O)NCC1CCCCC1,-16.7
6,COCCn1c(-c2ccccc2)nc2c(c(=O)c3ccccc3n2C)c1=O,7.78
7,Nc1nonc1/C(=N/O)N1CCCC1,7.07
8,CC(C)N(C(=O)CSc1ccc(S(=O)(=O)N2CCCCC2)cn1)C(C)C,-15.7
9,COc1ccc(NS(=O)(=O)c2ccc(-c3n[nH]c(=S)n3Cc3ccccc3)cc2)cc1,-25.3
10,O=C(O)C(=O)O.c1ccc(CNC23CC4CC(CC(C4)C2)C3)nc1,15.3
11,C/C(NCCCn1ccnc1)=C(\C#N)C(N)=O,-1.85
12,Cc1cc(C)n2c(Br)c(CSc3nc4ccccc4o3)nc2n1,-63.9
13,Cc1ccc(S(=O)(=O)N2CCCC2CNC(=O)c2ccc(F)c(F)c2)cc1 (stereo not shown),-52.5
14,COC(=O)C1=C(c2ccc(C(C)=O)cc2)C[C@@H]2CC[C@H]1N2C(=O)NCCOc1ccccc1Cl,-29.1
15,O=C(Cc1ccccc1)Nc1ccccc1CO,10.6
16,CC(NC(=O)CCNC(=O)c1ccc(Br)cc1)c1ccc(-n2ccnc2)cc1 (stereo not shown),-66.5
17,CCCC(=O)NC(=S)Nc1cc(-c2nc3ncccc3o2)ccc1C,-12
18,c1ccc2c(c1)Cc1ccccc1O2,14.7
19,COc1ccc([C@H]2/C=C\CN(S(=O)(=O)c3ccc4ccccc4c3)[C@@H](C)C(=O)N2Cc2ccc(F)cc2)cc1,6.43
20,Cc1cccc(NC2(C(F)(F)F)N=C(c3ccccc3)NC2=O)n1 (stereo not shown),-1.67
21,COc1ccccc1NC(=O)CSC1CC(=O)N(c2ccc3c(c2)OCO3)C1=O (stereo not shown),8.65
22,CCCCn1c(=O)c(C(=O)N/N=C/c2ccc(F)cc2)c(O)c2ccccc21,20.1
23,CC(=O)OC(Cn1ccnc1)c1ccccc1.Cl (stereo not shown),5.17

row,Compound,"hERG current change (%, negative = inhibition) at 10uM [%]"
1,Nc1nnc(SCC(=O)N2CCc3ccccc32)n1-c1ccccc1,6.94
2,Cc1nc(NC(=O)CSc2nnc(C3CC3)n2C)sc1C(=O)N(C)C,17.5
3,N#CCCN(Cc1ccccc1)C(=O)Nc1ccc(F)cc1,9.77
4,COc1ccc(CN(C)CC(=O)Nc2cccc3ccccc23)cc1F,-13.4
5,O=C1Nc2cc(Cl)c(Cl)cc2N(O)N1c1cc(Cl)cc(Cl)c1,18.3
6,CC(C)c1ccc(NC(=O)COC(=O)[C@H](CCC(N)=O)NC(=O)c2ccc(F)cc2)cc1,-45.5
7,COc1ccc(S(=O)(=O)N2CCC(C(=O)NCC3CCCO3)CC2)cc1OC (stereo not shown),19.9
8,COCCCNC(=O)CC(NS(=O)(=O)c1ccc(Cl)cc1)c1ccco1 (stereo not shown),6.24
9,CCOc1ccc(-n2c(SCC)nc3c(c2=O)SCC3)cc1,15
10,O=S(=O)(Nc1cccc2c1CCCC2)c1cccc(C(F)(F)F)c1,-4.79
11,CCOC(=O)c1c(C)[nH]c(C(=O)OCC(=O)NC(C)C)c1C,-5.7
12,COc1ccc(/C=C/C(=O)NCCNC(=O)c2ccccc2)cc1OC,-8.61
13,N#Cc1ccc(CN2C=NS(=O)(=O)c3ccccc32)cc1,-14.7
14,NC(CSCc1cccc(Br)c1)C(=O)O (stereo not shown),-45.7
15,COC(=O)c1ccc(OCC(=O)c2ccc(O)cc2O)cc1,-11.3
16,CS(=O)(=O)c1ccc2nc(NC(=O)Cc3ccccc3)sc2c1,-0.144
17,Cc1ccc(NC(=O)c2cccc3c2C(=O)N(C2CCCCC2)C3)c(C)c1,12.3
18,Cc1cccc(CN2CCN(c3ccccn3)CC2)c1,-17
19,Cc1nc(NC(=O)C2CC2)sc1C(=O)N(C)C,23.8
20,COc1ccc(S(=O)(=O)Nc2ccc(C)cc2)cc1OC,-22.7
21,O=C(NCCc1ccccc1)C1CCC(CNS(=O)(=O)c2ccccc2)CC1 (stereo not shown),13.4
22,Cc1ccc2nc(-c3ccc(NC(=O)CN(c4ccccc4C)S(C)(=O)=O)cc3)sc2c1,-7.27
23,CN1CCN(C(=O)c2ccccc2[N+](=O)[O-])CC1,7.95

row,Compound,"hERG current change (%, negative = inhibition) at 10uM [%]"
1,Clc1cccc(OCCCn2ccnc2)c1,6.9
2,O=C(CNS(=O)(=O)c1ccccc1)OCc1cccc([N+](=O)[O-])c1,-30
3,CC1CCCC(NC(=O)COC(=O)c2ccc(Cl)nc2)C1C (stereo not shown),3.91
4,O=c1c2c(nc3n1CCCCC3)sc1c(O)c(Br)ccc12,-15.5
5,CC1(O)N(CCC(=O)Nc2cccc(F)c2)C(=O)OC12CCCCC2 (stereo not shown),18.5
6,CCOc1ccc(N2Cc3ccccc3C2)cc1,-2.48
7,COc1ccccc1C1=CC(=O)CCC1,10.5
8,CC(C)COP(=O)(c1ccc(N(C)C)cc1)C(O)c1ccccc1F (stereo not shown),-16.9
9,Cc1cc(OCC(=O)NCC2CCC(C(=O)O)CC2)c2c(C)cc(=O)oc2c1 (stereo not shown),6.71
10,CCN(CC)Cc1ccccc1Sc1ccccc1.O=C(O)/C=C\C(=O)O,-53.3
11,O=C(CN1C(=O)C2CC=CCC2C1=O)Nc1nnc(SCc2ccc(Cl)cc2)s1 (stereo not shown),-7.7
12,CCC1CN(S(=O)(=O)c2ccc3c(c2)NC(=O)CC(=O)N3)c2cc(Cl)ccc2O1 (stereo not shown),9.44
13,OCCNc1nc(Nc2ccccc2Oc2ccccc2)nc(N2CCCC2)n1,3.68
14,CN(CC1COCCO1)C(=O)c1cc(COc2c(F)cccc2F)on1 (stereo not shown),6.62
15,Cn1c(SCc2nc3ccccc3s2)nnc1-c1ccc2c(c1)OCO2,-29.7
16,CCOC(=O)c1csc(NC(=O)Nc2cccc(Cl)c2)n1,23
17,CC(=O)NN1C(=O)/C(=C\c2ccc(Cl)cc2)SC1=S,0.662
18,N#Cc1ccc(OCC(=O)Nc2ccncc2)cc1,18.1
19,CCOC(=O)c1c(C)[nH]c(C(=O)COC(=O)c2cc(C)oc2C)c1C,-23.1
20,COc1ccc(N2CC(C(=O)N3CCOCC3)CC2=O)cc1 (stereo not shown),18.3
21,CCN(CCO)Cc1cc(=O)oc2cc3c(cc12)CCC3,10.4
22,O=C(N1CCN(c2ncccn2)CC1)C12CC3CC(CC(C3)C1)C2,6.88
23,Cc1ccc(-c2nnc(SCC(N)=O)n2C)cc1,-0.685

row,Compound,"hERG current change (%, negative = inhibition) at 10uM [%]"
1,CCC1CCCCN1CC(=O)c1c(C)[nH]c2ccccc12 (stereo not shown),-27.4
2,CCCC1=NN(C(=O)C(=O)Nc2ccc(Br)cc2)C(O)(C(F)(F)F)C1 (stereo not shown),15.3
3,O=C(Nc1nnc(-c2ccco2)o1)c1ccc(S(=O)(=O)N2CCCC2)cc1,19.2
4,COC(=O)C1=C(c2ccc(F)cc2OCc2ccccc2)C[C@@H]2CC[C@H]1N2C(=O)NCc1ccccc1C(F)(F)F,20.9
5,CCn1c(NCCO)nc2c(c1=O)C(C)(CC)Cc1ccccc1-2 (stereo not shown),8.74
6,CC(C)(C)c1ccc(C(=O)NC(=S)Nc2nc3c(s2)CCCC3)cc1,27.6
7,CC(=O)c1ccc(S(=O)(=O)Nc2ccc(C(=O)N(C)CC(=O)Nc3cccc(C)c3C)cc2)cc1,14.5
8,C=C(C)c1cccc(C(C)(C)NC(=O)Nc2cc(C)ccc2OC)c1,3.48
9,CCCCC(=O)NC(=S)Nc1cc(C(=O)O)ccc1OC,20.3
10,Cc1[nH]n(-c2ccccc2)c(=O)c1C(c1cccc([N+](=O)[O-])c1)c1c(C)[nH]n(-c2ccccc2)c1=O,15.1
11,O=C1CC2(CCN(C(=O)c3ccc(F)cc3)CC2)Oc2ccccc21,-76
12,COC(=O)c1cc(S(=O)(=O)N2CCCCCC2)cn1C,-10.5
13,CC(C)NC(=O)COc1coc(CN2CCN(C(=O)c3ccco3)CC2)cc1=O,10.3
14,Cc1ccc(C(=O)CC(C(=O)O)n2ccc(C)n2)cc1 (stereo not shown),6.03
15,CC(=O)NC(Cc1cccc(C)c1)C(=O)NC1CCN(c2ncccc2[N+](=O)[O-])CC1 (stereo not shown),0.362
16,N#Cc1cc2c(nc1SCC(=O)Nc1sc3c(c1C#N)CCC3)CCCCC2,-10
17,CCCn1c(=O)n(N)c2ccccc21,-12.2
18,O=C(c1cnc2sccn2c1=O)N1CCN(c2ccccc2Cl)CC1,-2.33
19,CCc1cc(/C(Cc2csc(C)n2)=N/O)c(O)cc1O,1.05
20,COc1ccc2ccccc2c1CNCCc1ccccc1.Cl,-53.1
21,O=C(NCCCNC(=O)NC1CCCCC1)NC1CCCCC1,21.4
22,Cc1n[nH]c(=O)nc1NC1CCCCC1,11.5
